# Experimental data as given in PubChem BioAssay AID1508642 (National Center for Advancing Translational Sciences (NCATS), 2021).
# The campaign covered roughly 43,000 compounds. About 200 (0.47%) were called active. Not shown: some 12% with an inconclusive outcome. The call rests on the fitted dose curve; in most records, active means well fitted cell-killing curve with a large enough effect; inconclusive means small, poorly fitted or top-dose-only effect, or effect the other way; inactive means flat fitted curve, though single readings scatter. This is one part of the list.
# Test: Cell viability qHTS assay in S16 Pmp22-F2sN cells; further: nearly all actives have a fitted effect of over 65% in size
# Conditions: S16 Pmp22-F2sN Schwann cells (luciferase reporters placed in the Pmp22 gene) viability, CellTiter-Glo, 24 h; series mostly up to 57.5 µM; activity change, negative = cytotoxicity: at the top concentration
# Method in brief: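 Seed 500-1,000 S16 Pmp22-F2sN cells per well in phenol-red-free DMEM with 10% heat-inactivated FBS; pin-add 23 nL compound; incubate 24 h at 37C; add CellTiter-Glo, wait 15 min protected from light; read luminescence.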
# On the % scale 0 is the no-effect control and ±100 the full control effect; potency means the concentration at half of the fitted maximal effect.
Structure (SMILES),"activity change, negative = cytotoxicity",Potency
CCCCSCCCNC(=O)c1cn(CC)c2ccc(S(=O)(=O)N3CCOCC3)cc2c1=O,inactive: 0.85%,–
CCOc1ccc(NC(=O)CSc2nnc3c(C)cc4ccccc4n23)cc1,inactive: 23%,–
COc1ccc(S(=O)(=O)N2CCC(C(=O)Nc3ccc(Oc4ccccc4)cc3)CC2)cc1OC,inactive: 1.62%,–
COc1ccc2c(c1)CC(C(=O)Nc1c(C)cc(C)cc1C)CO2 (stereo not drawn),inactive: 6.28%,–
NS(=O)(=O)c1ccc(CCNC(=O)Cn2c(=O)c3cccn3c3ccc(F)cc32)cc1,inactive: 22.7%,–
COc1cccc2c1Oc1ncccc1N(C(=O)CCC(=O)NCc1ccc(OC(C)C)cc1)C2,inactive: 0.78%,–
Cc1nn(CC(=O)NC(C)c2ccccc2)c(=O)c2cc3occc3n12 (stereo not drawn),inactive: 0.0668%,–
O=C(CSc1nc2c([nH]c3ccccc32)c(=O)n1-c1ccccc1)Nc1ccccc1C(F)(F)F,inactive: 9.69%,–
NC(=O)COc1ccc(-c2noc(COc3ccc(Cl)cc3)n2)cc1,inactive: -3.95%,–
CCOC(=O)C1=C(CN2CCN(c3ccc(Cl)cc3)CC2)NC(=O)NC1c1ccc(F)cc1 (stereo not drawn),inactive: -10.2%,–
COc1ccc(OC)c(NC(=O)CCCOc2cc(=O)n(C)c3ccccc23)c1,inactive: -14.4%,–
COc1cccc(C(=O)NCC(c2ccc3c(c2)OCO3)N2CCN(C)CC2)c1 (stereo not drawn),inactive: 20.9%,–
Cc1[nH]c2ccccc2c1C1(O)C(=O)Nc2ccc(Cl)cc21 (stereo not drawn),inactive: 4.19%,–
COc1cc(CNCCCSc2nnnn2C)cc(Br)c1OC,inactive: 13.4%,–
O=C(Nc1cccc(F)c1)C1CCN(c2nc3ccccc3nc2C(F)(F)F)CC1,inactive: -6.03%,–
CCc1ccccc1-n1nnc(-c2nc(-c3ccccc3F)no2)c1C,inactive: 2.26%,–
Cc1ccc2c(c1)-c1nc(-c3ccccc3)cc(-c3ccccc3)c1CO2,inactive: 3.72%,–
CCc1ccc(-c2nc(CN3CCCC(C(=O)NCc4ccccc4Cl)C3)c(C)o2)cc1 (stereo not drawn),inactive: -2.94%,–
COc1cc(C(=O)N(CCCN(C)C)c2nc3c(OC)cccc3s2)cc(OC)c1OC,inactive: -1.36%,–
O=C(NC1CCCC1)c1ccc2c(c1)N(Cc1c(F)cccc1Cl)C(=O)c1ccccc1S2,inactive: 11.3%,–
Cc1nn2c(=O)cc(COC(=O)c3ccccc3NC(=O)C3CCCCC3)nc2s1,inactive: 5.56%,–
CCOc1ccc(N(CC)S(=O)(=O)N2CCCC(C(=O)NCc3ccccc3OCC)C2)cc1 (stereo not drawn),inactive: -6.81%,–
COc1cc(-c2cc3n(C)c(C)c(CCC(=O)NC4CCC(C)CC4)c(=O)n3n2)cc(OC)c1OC (stereo not drawn),inactive: -7.07%,–
CCOc1ccc(CCNc2ncnc3onc(C)c23)cc1OCC,inactive: -24.5%,–
COc1ccc(CCNC(=O)CCCCn2c(=O)c3ccccc3n(Cc3cccc(C)c3)c2=O)cc1OC,inactive: -1.32%,–

Structure (SMILES),"activity change, negative = cytotoxicity",Potency
CCOC(=O)c1cnc2c(OC)cccc2c1N1CCN(c2ccccc2F)CC1,inactive: -26.8%,–
COc1ccc(CNC(=O)c2ccc(-c3nc(CSc4ccccc4)c(C)o3)cc2)cc1,inactive: 12.4%,–
COc1ccc(C(=O)Nc2ccc3c(c2)CCCN3S(=O)(=O)c2ccc(C)cc2)cc1,inactive: 4.85%,–
CCCCN(CCCC)CCn1cnc2c([nH]c3ccc(OC)cc32)c1=O,inactive: -1.72%,–
COc1ccc(NC(=O)c2oc3ccccc3c2NC(=O)c2cc(=O)c3ccccc3o2)cc1,inactive: -13.7%,–
CCn1cc(C(=O)N2CCN(c3ccccc3OC)CC2)c2cc(OC)c(OC)cc2c1=O,inactive: -2.25%,–
CCC(Oc1ccccc1)C(=O)Nc1nnc(S(=O)(=O)N2CCCC2)s1 (stereo not drawn),inactive: -1.4%,–
CCc1ccc(OCC(=O)Nc2c(C(=O)c3ccc(Br)cc3)oc3ccccc23)cc1,inactive: 1.29%,–
CCOc1cccc2sc(=NC(=O)c3ccc(S(=O)(=O)N4CCOCC4)cc3)n(C)c12,inactive: 2.25%,–
CCc1ccc(NC(=O)c2ccc(CNS(=O)(=O)c3ccc4c(c3)C(C)(C)C(=O)N4C)cc2)cc1,inactive: -2.96%,–
COc1cc(CNCCSc2nnnn2C)ccc1OCc1ccccc1,inactive: 6.15%,–
COc1ccc(N2CCN(C(=O)c3c(C)oc4ncn(CC(C)C)c(=O)c34)CC2)cc1,inactive: 4.17%,–
COC(=O)c1ccc(NC(=O)C(C)N2Cc3ccccc3C2=O)cc1 (stereo not drawn),inactive: 3.15%,–
Cc1ccc2nc3sc(C(=O)Nc4ccc(F)cc4)cc3cc2c1,inactive: 2.16%,–
CN(C(=O)CSc1nc2ccc(NC(=O)c3ccco3)cc2s1)c1ccccc1,inactive: -19.8%,–
CCc1ccccc1NC(=O)c1nnn(CC(=O)Nc2c(C)cc(C)cc2C)c1N,inactive: 0.785%,–
Cc1cc(C)c2c(NC(=O)c3ccccc3Cl)c(C(=O)Nc3ccc(C)c(C)c3)sc2n1,inactive: 0.834%,–
Cc1ccc(CNC(=O)c2cnc(N3CCCC3)nc2C)cc1,inactive: 0.68%,–
Cc1ccc(N2CCN(S(=O)(=O)c3nnc(NC(=O)c4cccc(F)c4)s3)CC2)cc1,inactive: 1.79%,–
CCc1ccc(NC(=O)C2CCN(c3ccc(Sc4ccc(C)cc4)nn3)CC2)cc1,inactive: 1.77%,–
COc1ccc(CCNC(=O)Cn2c(=O)cc(C(F)(F)F)c3c(C)nn(C)c32)c(OC)c1,inactive: 8.04%,–
CCOc1cc(CNC(=O)c2cc(-c3ccc(Cl)s3)nc3ccccc23)ccc1OC,inactive: 13.3%,–
COc1ccc(NC(=O)CNC(=O)Cn2ccc3ccccc3c2=O)c(OC)c1,inactive: 3.06%,–
O=C(Cn1cccc1C(=O)c1ccccc1)NCc1ccc(Cl)cc1,inactive: 13.7%,–
Cc1ccc(N2CC(C(=O)NCCS(=O)(=O)N3CCN(c4ccc(F)cc4)CC3)CC2=O)cc1 (stereo not drawn),inactive: -2.28%,–

Structure (SMILES),"activity change, negative = cytotoxicity",Potency
O=C(CCSCc1cccc(F)c1)NCCc1ccccc1,inactive: 0.0549%,–
O=C(CCSCCc1ccccn1)Nc1ccccc1C(F)(F)F,inactive: 5.01%,–
CCc1ccccc1NC(=O)Cn1cc(C(=O)c2ccncc2)c(=O)c2cc(C)ccc21,inactive: 5.15%,–
COc1ccc(CCNC(=O)c2cc(-c3ccc(C)cc3)nc3n[nH]c(-c4ccc(F)cc4)c23)cc1OC,inactive: -14.4%,–
Cc1ccc(-n2ncc3c(NCCc4ccccc4)ncnc32)cc1Cl,inactive: 2.22%,–
O=C(COCc1cc(-c2ccc(F)cc2)on1)Nc1cc(Cl)cc(Cl)c1,inactive: 19.6%,–
COc1cccc(Cn2c(=O)n(-c3cc(C)cc(C)c3)c(=O)c3oc4ccccc4c32)c1,inactive: -4.06%,–
Cc1ccc2c(=O)c(C(=O)c3cccc(Cl)c3)cn(CC(=O)NCc3ccccc3)c2n1,–,active: 10 µM
CCC(CC)C(=O)Nc1cccc(-c2cn3cccnc3n2)c1,inactive: 2.17%,–
Cc1c(Cl)cccc1-c1ccc(C(=O)Nc2ccc3oc(-c4cccnc4)nc3c2)o1,inactive: -1.21%,–
COCCCNc1oc(-c2ccc(COc3ccccc3C)o2)nc1C#N,inactive: -15.7%,–
COc1cc(OC)c(NC(=O)Cn2c(=O)nc(-c3ccccc3)c3ccccc32)cc1Cl,inactive: 14.2%,–
CC1=C(C(=O)Nc2cccc(F)c2)C2(CCCCCC2)OC1=O,inactive: -15.2%,–
COc1ccc(OC)c(NC(=O)C(Cc2ccccc2)NS(=O)(=O)c2ccc3c(c2)CCC(=O)N3)c1 (stereo not drawn),inactive: -3.28%,–
CCC(=O)N1c2ccccc2CC1C(=O)NCCCN1CCN(c2ccc(F)cc2)CC1 (stereo not drawn),inactive: 15.2%,–
Cc1cccc(C(=O)n2nc(-c3ccco3)nc2NCc2ccccc2)c1,inactive: 1.33%,–
COc1ccc(NC(=O)C(=O)Nc2ccc3nc4n(c(=O)c3c2)CCCCC4)c(OC)c1,inactive: 8.94%,–
CCN(CC)S(=O)(=O)c1ccc2c(c1)N(CC(=O)Nc1cccc(C(C)=O)c1)C(=O)CO2,inactive: 19.9%,–
O=C(Nc1ccc(Br)cc1)Nc1nc2c(s1)CCCCCC2,inactive: 12.2%,–
O=C(COCc1cc(-c2ccc3c(c2)OCO3)on1)Nc1cccc(O)c1,inactive: 6.29%,–
COc1cc(OC)c(NC(=O)c2nn(C)c3c2COc2ccccc2-3)cc1Cl,inactive: -4.58%,–
Cc1ccccc1NC(=O)Cn1nnc(C(=O)NCc2ccco2)c1N,inactive: -12.5%,–
CCOC(=O)c1cnc2cc(Cl)c(OC)cc2c1Nc1ccc(Br)cc1C,inactive: 1.67%,–
COc1ccccc1N1CCN(C(=O)C2CCN(S(=O)(=O)c3cccs3)CC2)CC1,inactive: -0.331%,–
COc1ccccc1C(=O)NC1(C(F)(F)F)C(=O)NC(C)=C1C#N (stereo not drawn),inactive: 10.6%,–

Structure (SMILES),"activity change, negative = cytotoxicity",Potency
O=C(CSc1c2c(nc3ccc(Cl)cc13)CCCC2)N1CCN(c2ccc(Cl)cc2)CC1,inactive: -1.66%,–
CCOc1ccc(OC(=O)c2sc3ncn(Cc4cccc(F)c4)c(=O)c3c2C)cc1,inactive: 3.92%,–
CSc1ccc(CCNS(=O)(=O)c2cc(-c3cc(C)no3)ccc2C)cc1,inactive: -1.63%,–
COc1ccc(Cn2nc3n(c2=O)-c2ccccc2OC3)cc1,inactive: 1.92%,–
Cc1cccc(C(=O)Nc2nnc(S(=O)(=O)N3CCOCC3)s2)c1,inactive: -12.1%,–
O=C(Nc1ccccc1)c1cc2c(-c3ccccc3)nn(-c3ccccc3)c2s1,inactive: -16.3%,–
COc1ccccc1C(=O)Nc1nnc(S(=O)(=O)N2CCCCC2)s1,inactive: 2.81%,–
COc1ccc(Cl)cc1NC(=O)c1c(NCc2cccnc2)sc2c1CCCC2,inactive: -0.848%,–
Cc1ccccc1NC(=O)Cn1c(=O)n(Cc2ccco2)c(=O)c2ccc(C(=O)NC3CCCC3)cc21,inactive: 7.6%,–
Cc1cc(-c2ccccc2)nc2cc(C(=O)Nc3ccc(Cl)c(Cl)c3)nn12,inactive: -4.85%,–
COc1ccccc1NC(=O)CSc1ncc(CO)n1Cc1ccc(F)cc1,inactive: -16.4%,–
COc1ccc2ncc3c(-c4ccccc4)nn(-c4ccc(C)c(C)c4)c3c2c1,inactive: 12.2%,–
CC(C)c1cnc2c(c1SCC(=O)c1ccc(Cl)cc1)c(=O)n(C)c(=O)n2C,inactive: -20.9%,–
CC1CN(C(=O)Nc2ccc(C(=O)NCCc3ccc(Cl)cc3)cc2)c2ccccc2S1 (stereo not drawn),inactive: -7.24%,–
COCCn1c(C)cc(O)c(C(c2ccc(OC)cc2)N2CCCCC2)c1=O (stereo not drawn),inactive: 2.76%,–
CCOc1ccc(NCc2cccn2-c2nnc(N3CCC(C(=O)NCCc4ccc(OCC)c(OCC)c4)CC3)s2)cc1,inactive: -21.6%,–
CCCC(=O)Nc1ccc2nc(SCCOc3ccccc3)sc2c1,inactive: 3.81%,–
CCCN1Cc2cccc(C(=O)Nc3ccccc3F)c2C1=O,inactive: -3.41%,–
Cc1cccc(NC(=O)C(=O)NCC(c2cccnc2)N2CCN(Cc3ccccc3)CC2)c1 (stereo not drawn),inactive: -15%,–
Cn1c(C(=O)NCCc2ccccc2)cc2cc(S(=O)(=O)N3CCCCC3)ccc21,inactive: -15.3%,–
Cc1ccccc1NC(=O)CSCn1nnc2c(=O)[nH]c(Cc3ccc(F)cc3)nc21,inactive: -2.21%,–
COc1ccc(N2CCN(C(=O)Nc3ccc(Cl)cc3)CC2)cc1,inactive: -1.83%,–
CCc1cccc(-n2nnc(-c3nc(-c4ccc5c(c4)OCO5)no3)c2C)c1,inactive: -11.9%,–
